Reference: publication PMC4336329 (PLoS ONE, 2015)
The campaign covered roughly 310,000 compounds. About 14,000 (4.5%) showed an effect of 50% or more. The effect is printed as a negative number. This is one part of the list.

What follows are compounds tested against human ether-à-go-go-related gene (hERG) potassium channel (human, UniProt Q12809) (assay: primary screen, population patch clamp on CHO cells stably expressing hERG).
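Note: peak tail current of the secondary pulse compared with the same well before compound.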

Sequence of human ether-à-go-go-related gene (hERG) potassium channel (Q12809 whole entry, looked up): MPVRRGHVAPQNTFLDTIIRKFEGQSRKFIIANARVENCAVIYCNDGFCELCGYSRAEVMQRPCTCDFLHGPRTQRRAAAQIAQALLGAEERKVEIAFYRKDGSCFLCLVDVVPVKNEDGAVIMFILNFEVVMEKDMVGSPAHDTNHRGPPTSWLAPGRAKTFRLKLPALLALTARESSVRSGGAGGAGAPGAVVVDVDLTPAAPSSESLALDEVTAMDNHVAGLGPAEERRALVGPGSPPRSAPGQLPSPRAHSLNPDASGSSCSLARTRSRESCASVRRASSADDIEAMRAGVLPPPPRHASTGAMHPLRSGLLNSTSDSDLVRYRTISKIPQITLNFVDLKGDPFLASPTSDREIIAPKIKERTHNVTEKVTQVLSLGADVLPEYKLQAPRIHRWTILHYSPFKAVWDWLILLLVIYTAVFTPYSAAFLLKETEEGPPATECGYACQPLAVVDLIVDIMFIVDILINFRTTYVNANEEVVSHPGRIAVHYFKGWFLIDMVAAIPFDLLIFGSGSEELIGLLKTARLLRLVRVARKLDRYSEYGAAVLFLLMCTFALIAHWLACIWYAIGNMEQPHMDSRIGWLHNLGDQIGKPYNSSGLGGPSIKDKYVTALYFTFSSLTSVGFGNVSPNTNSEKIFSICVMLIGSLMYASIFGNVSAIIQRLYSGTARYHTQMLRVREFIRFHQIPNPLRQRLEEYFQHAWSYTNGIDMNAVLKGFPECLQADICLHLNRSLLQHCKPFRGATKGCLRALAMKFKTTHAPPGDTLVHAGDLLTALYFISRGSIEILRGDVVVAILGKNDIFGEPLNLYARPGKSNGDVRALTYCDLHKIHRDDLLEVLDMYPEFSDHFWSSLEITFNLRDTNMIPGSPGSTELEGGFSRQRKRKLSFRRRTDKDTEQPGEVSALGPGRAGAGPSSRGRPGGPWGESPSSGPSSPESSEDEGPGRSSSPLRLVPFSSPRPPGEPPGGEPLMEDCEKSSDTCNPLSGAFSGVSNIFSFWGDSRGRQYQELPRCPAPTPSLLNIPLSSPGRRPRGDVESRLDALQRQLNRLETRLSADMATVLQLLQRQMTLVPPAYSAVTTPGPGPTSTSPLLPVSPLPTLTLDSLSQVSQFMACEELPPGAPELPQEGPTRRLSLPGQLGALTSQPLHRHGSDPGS

SMILES	hERG current change (%, negative = inhibition) at 10uM
Cc1nn(CC(=O)NCc2ccc(Cl)cc2)c(C)c1[N+](=O)[O-]	10.1%
COc1ccc(-c2cc(C)no2)cc1S(=O)(=O)N(C)Cc1ccco1	-20.3%
Cc1[nH]c(=O)[nH]c(=O)c1S(=O)(=O)N1CCN(c2ccccc2F)CC1	2.33%
Cc1ccc(SCCCCN2CCOCC2)cc1.Cl	-24.6%
O=C(CN1CCN(S(=O)(=O)c2ccc(Cl)cc2)CC1)Nc1ccc2c(c1)OCO2	-65%
CCCN(C(=O)CCSc1ccc(F)cc1)c1c(N)n(Cc2ccccc2)c(=O)[nH]c1=O	7.46%
CCN(c1ccc(NC(=O)COC(=O)CCC(=O)c2ccc(F)cc2)cc1)C(C)C	-4.95%
CC(=O)Nc1ccc(NC(=O)C2CCN(c3ccc(C(F)(F)F)cn3)CC2)cc1	22.5%
CN(CCc1ccccn1)C(=O)c1nn2c(C(F)(F)F)cc(-c3ccco3)nc2c1Cl	-47%
CCCSC1=C(C#N)C(c2cccs2)CC(=O)N1 (stereo not drawn)	3.24%
CC(=O)N1CCN=C1SCc1ccc(Br)cc1	-25.6%
O=C(CS(=O)c1ccccc1[N+](=O)[O-])Oc1ccc(Br)cc1 (stereo not drawn)	-30.1%
COc1ccc(C(=O)N2CCC(n3c(C)nc4cc(F)ccc43)CC2)cc1	-73.4%
Cc1ccc(C(=O)N2CCN(c3ncccn3)CC2)cc1S(=O)(=O)N1CCCCC1	6.72%
CCCCn1c(NC(=S)Nc2ccccc2)nc2ccccc21	12.2%
O=C(NCc1n[nH]c(=O)c2ccccc12)C1CC(=O)N(c2ccc(Cl)cc2)C1 (stereo not drawn)	-70.7%
CCCCn1c(N)c(N(CC)C(=O)c2ccccc2C(F)(F)F)c(=O)[nH]c1=O	16.2%
Cc1ccc(CC(CC(=O)O)C(=O)NCC23CC4CC(CC(C4)C2)C3)cc1 (stereo not drawn)	21.9%
CC(C)OC(=O)c1c(-c2ccc(C(C)C)cc2)csc1NC(=O)C1CCCO1 (stereo not drawn)	9.05%
CCCN(CC(=O)Nc1ccccc1OC)C(=O)Cn1[nH]c(=O)c2ccccc2c1=O	-11.6%
CCN(CC)CCCNS(=O)(=O)c1ccc(OC)cc1	16.5%
O=C(NCc1nnc(SC/C=C/c2ccccc2)o1)c1ccco1	-5.97%
COC(=O)COc1ccc(S(=O)(=O)Nc2ccc3c(c2)OCCO3)cc1C	6.33%

SMILES	hERG current change (%, negative = inhibition) at 10uM
CN(C)S(=O)(=O)c1ccc(C(=O)NCCN=C2NS(=O)(=O)c3ccccc32)cc1	29.6%
CN(C)C(CNC(=O)CCc1nc2sc3c(c2c(=O)[nH]1)CCCC3)c1ccccc1 (stereo not drawn)	-7.87%
COc1ccc(C(=O)NNC(=O)C2CCN(S(=O)(=O)c3ccc(C)cc3)CC2)cc1	12.9%
Cc1ccc(C(=O)C(C)OC(=O)C2CC(=O)N(C3CCCCC3)C2)cc1 (stereo not drawn)	-11.2%
CC(=O)c1cccc(NC(=O)c2ccc(C(=O)Nc3cccc(C(C)=O)c3)nc2)c1	12.6%
COc1ccc(Br)c(C(=O)NCCC(C)C)c1	0.917%
S=c1[nH]nc(Nc2ccccc2)s1	23.2%
CCn1c(CCNC(=O)c2ccc(OC)cc2)nnc1SCc1ccc(Cl)cc1Cl	-65.6%
CC(=O)Oc1ccc(C(=O)Nc2ccccc2C(=O)Nc2ccc(C(=O)O)cc2)cc1	24.3%
C/C(CC(=O)Nc1ccccc1C)=N\NC(=O)Cc1csc(N)n1.CC(C)O	1.99%
Cc1ccc2c(CC(=O)Nc3c(C)n(C)n(-c4ccccc4)c3=O)coc2c1	-7.21%
CCN(CC)C(=O)C1CCCN(Cc2cccc(Oc3ccccc3)c2)C1 (stereo not drawn)	-19.6%
C=CCN(C)NC(=O)Nc1ccccc1	18.4%
NC(=O)C1CCN(C(=O)N2c3ccccc3Sc3ccccc32)CC1	-8.44%
CCCn1cnc2scc(-c3ccc(OC)cc3)c2c1=O	7.18%
O=C(NNc1ccccn1)C(c1ccccc1)c1ccccc1	2.37%
Cc1nnc(NC(=O)CCn2c(=O)oc3ccccc32)s1	15.9%
O=C(NCCN1CCOCC1)/C(=C\c1ccc(F)cc1)NC(=O)c1ccccc1	-62.3%
S=C(Nc1ccc2nsnc2c1)N1CCCC1	10.2%
CC(=O)c1cc(-c2ccccc2)n(CCC(=O)NC2CCC(C)CC2)c1C (stereo not drawn)	12.6%
COc1ccc(C(C)=O)cc1COc1cc(C)c(Cl)c(C)c1	9.44%
COc1ccc(OC)c(Nc2nc(C)nc3c2oc2ccccc23)c1	5.02%
CCOC(=O)C1CCN(C(=O)Nc2ccc(OCc3ccccc3)cc2)CC1	3.86%

SMILES	hERG current change (%, negative = inhibition) at 10uM
O=C(O)C1CCCN1S(=O)(=O)c1ccc2ccccc2c1 (stereo not drawn)	17.8%
Cc1cc(C)nc(SCc2nnc(SCC(=O)OC3CCCCC3)o2)n1	-8.12%
COc1cc(CNn2cn[nH]c2=S)ccc1OCC(=O)NC(C)(C)C	8.18%
Cc1nn2cc(-c3cccc(Cl)c3)cnc2c1Br	12.2%
Cc1cccc(NC(=O)c2cc3ccccc3o2)c1	-19.8%
CC(C)CN1C(=O)C(NC(=O)C2CC2)(C(F)(F)F)C2=C1CC(C)(C)CC2=O (stereo not drawn)	6.42%
CCCCN(C(=O)c1ccc2c(c1)S(=O)(=O)N=C1CCCCCN12)c1c(N)n(CCCC)c(=O)[nH]c1=O	8.23%
COc1ccc(-c2cc(C(=O)Nc3ccc(C)c(N)c3)c3ccccc3n2)cc1	15.3%
CC1CCCCN1S(=O)(=O)c1ccc(C(=O)N2CCOCC2)cc1 (stereo not drawn)	16.8%
CC(C)NS(=O)(=O)c1ccc(OCC(=O)NCC2CCCO2)c(Cl)c1 (stereo not drawn)	-3%
CCOc1ccc(-n2c(-c3ccc(Br)cc3)c[n+]3c2CCCCC3)cc1.[Br-]	-77.7%
c1ccc(N2CCN(c3ncnc4c3oc3ccccc34)CC2)cc1	2.36%
CC(C)(C)C(=O)NC(c1ccccc1)c1c(O)ccc2ccccc12 (stereo not drawn)	25.4%
COc1ccc(OCC(=O)N2CCN(S(=O)(=O)c3ccc(Cl)cc3)CC2)cc1	-22.9%
Cl.c1ccc2c(c1)oc1c(Nc3ccc(CN4CCOCC4)cc3)ncnc12	-62%
OCc1ncc(-c2ccccc2)s1	0.258%
CC(C)(C)c1ccccc1N=Cc1ccc2ccccc2n1	12.1%
Cc1cc(C)cc(NC(=O)C/C(N)=N/O)c1	9%
O=C(NCCC1=CCCCC1)c1cnc2n(c1=O)CCS2	-35.7%
Cc1cccc(C)c1NC(=S)NC(=O)CCc1ccccc1	-4.92%
COc1cc2c(c(OC)c1)C(c1cccc(OC)c1OC)CC(=O)N2 (stereo not drawn)	5.17%
O=C(NCCO)/C(=C/c1ccco1)NC(=O)c1ccco1	13.7%
CNS(=O)(=O)c1cccc(C(=O)OCc2cc(=O)n3cc(Br)ccc3n2)c1	-36.5%

SMILES	hERG current change (%, negative = inhibition) at 10uM
COc1ccc(CCC(=O)Nc2ccc(S(=O)(=O)Nc3ncccn3)cc2)cc1	4.03%
O=C(NC1CC2CCCC(C1)N2Cc1ccc(F)cc1)c1ccc(F)cc1 (stereo not drawn)	-70.8%
CN(C)c1ccc2c(=O)[nH][nH]c(=O)c2c1	20.1%
COC(=O)C1=C(c2ccc(C(C)=O)cc2)C[C@@H]2CC[C@H]1N2C(=O)NCc1ccc(C(F)(F)F)cc1	30%
CCN1CCN(CC(=O)Nc2ccc(Cl)c(Cl)c2)C(=O)C1=O	-5.76%
Cc1ccc(SCCC(=O)N2CCCC2)cc1	9.92%
CCS(=O)(=O)N1Cc2ccccc2CC1C(=O)Nc1nnc(SCc2ccc(F)cc2)s1 (stereo not drawn)	9.04%
Cc1ccc2c(c1)c1n[nH]c(=S)nc1n2CCc1ccccc1	13.1%
O=C(Nc1ccncc1)Nc1ccc(F)c(Cl)c1	-7.5%
COCCCN(C(=O)c1cc2c(s1)CCCCC2)c1c(N)n(Cc2ccccc2)c(=O)[nH]c1=O	0.561%
O=c1oc2ccccc2c(NCc2ccccc2F)c1[N+](=O)[O-]	-6.99%
O=[N+]([O-])c1ccc2oc(-c3cccc(O)c3)nc2c1	-6.58%
COc1ccccc1NC(=O)c1cc(Cl)nnc1Cl	19.2%
C[C@H]1COc2c(N3CCN(C)CC3)c(F)cc3c(=O)c(C(=O)O)cn1c23	11.2%
O=C(O)CCC(=O)Nc1ccc(SSc2ccc(NC(=O)CCC(=O)O)cc2)cc1	-3.33%
CCCCNC(=O)CSc1nccn1Cc1ccccc1	-6.63%
COc1ccc(/C=N/Nc2nnc(C)n2N)cc1OC	3.07%
COc1ccc(-c2nnc(N3CCC(C)CC3)c3ccccc23)cc1	-0.63%
COc1cc(/C=N\Nc2nc(-c3cccs3)c(NC(C)=O)s2)ccc1O	-0.00252%
Cl.c1ccc2c(N3CCNCC3)nsc2c1	-5.8%
CCOC(=O)Cc1nnc(-c2ccccc2)o1	-4.9%
